# Laboratory results as given in ChEMBL document CHEMBL4888484, “Replenishing the malaria drug discovery pipeline: Screening and hit evaluation of the MMV Hit Generation Library 1 (HGL1) against asexual blood stage Plasmodium falciparum ,using a nano luciferase reporter read-out” (2022).
# The whole screen tested about 150,000 compounds, of which about 540 (0.36%) showed an effect of 50% or more. Some of the results follow.
# Tested on: Plasmodium falciparum
# Assay: Primary screen in NF54 nanoGlo assay, in single point, at 2uM, 72h; a lower Z score goes with more inhibition
# Type: functional, Erythrocyte
# Conditions: timepoint 72 hour
SMILES,% Inhibition [%],Z score
CCn1ccc(C(=O)N2CC[C@H](Cc3nc4cccnc4n3CC(C)C)C2)n1,-8,1.27
COCCNC1=Nc2ccccc2CN[C@]12CCN(C(=O)COc1ccc(F)c(F)c1)C2,-6,0.95
Cc1cnn(CCCN2C[C@@](C)(c3ccccc3)CCC2=O)c1,1,-0.17
O=C(O)c1cccnc1NCC1(N2CCN(c3ccccc3)CC2)CCOCC1,-6,1.06
CC1OCCC1NC(=O)NCCc1nc2cc(Cl)ccc2n1C (stereo not given),-1,0.08
CS(=O)(=O)N[C@H]1CCCN(C(=O)CCc2ccc(-c3ccccc3)o2)C1,-5,0.44
O=C(c1ccc(Br)o1)N1CCOC2CCCCC21 (stereo not given),-13,1.93
Cc1ccc(Nc2nc(N)nc(Cn3cc(C(F)(F)F)cc(Cl)c3=O)n2)cc1,-16,2.94
Cc1ccc(S(=O)(=O)N2C[C@H](F)C[C@@H]2C(=O)N2CCOCC2)cc1Cl,13,-1.71
C[C@@H](COc1ccccc1)NCCc1nnc(N)s1,2,-0.31
Cc1cc(-n2cccn2)ccc1CN(Cc1cccnc1)C[C@@H]1CCC(=O)N1,-4,0.77
CCN1C(=O)COc2ccc(-c3csc(NC(=O)[C@@H]4CCCO4)n3)cc21,37,-0.96
O=c1c2ccccc2nnn1C[C@H]1CC[C@H](C(=O)Nc2nccs2)CC1,-7,0.88
CC(NC1CC2CCCc3cccc1c32)c1cnccn1 (stereo not given),3,-0.28
CC(NC1(C)CCOC1)c1cc2ccccc2o1 (stereo not given),-7,1.11
O=C(c1cccc(CO)n1)N1CCC2(CC1)c1ccccc1C[C@@H]2O,16,-2.05
CCCCOCC(=O)N1CCC[C@H](CO)C1,-6,0.76
CCS(=O)(=O)NCCNC(=O)c1ccc(Cl)cc1,-10,1.52
CC(C)Oc1ccc2nnc(CCC(=O)N[C@H]3CCS(=O)(=O)C3)n2n1,2,-0.31
COC1CC(CCNC(=O)N2CCC(c3cncn3C)CC2)C1 (stereo not given),-6,1.14
CO[C@H]1C[C@H]2CN(C(=O)Nc3ccccc3Cl)[C@@H](C)C(=O)N2C1,1,-0.16
CCOc1ccc(C(=O)N(C)C)cc1N,-9,1.32

SMILES,% Inhibition [%],Z score
Cc1nc(CN(C)[C@H]2CCC(=O)N(Cc3cccc(Cl)c3)CC2)cs1,2,-0.28
Clc1ccc2nc(N3CC(c4ccccn4)C3)sc2c1,5,-0.74
CC(C)Oc1ccc(-c2noc(Cn3c(=O)n(Cc4ccccc4)c(=O)c4sccc43)n2)cc1,-4,0.45
Cc1nn(C)c(C)c1CN(C)S(=O)(=O)N1CCCC1,-3,0.56
CC(=O)[C@H]1CCN(c2nccc(C(F)(F)F)n2)C1,-7,1.4
Cc1cc(C(=O)Nc2ccc(N3C(=O)CC[C@@H]3C)cc2)cc(C)n1,-1,0.14
Cc1ccc(-c2cn3c4ccccc4nc3n2CCCNC(C)C)cc1,-5,0.44
CCc1ccccc1S(=O)(=O)N1C2CC[C@@H]1CN(C)CC2,-8,1.61
Cn1c([C@@H]2CCCN2c2cc(N3CCCC3)ncn2)nc2c1CCCC2,13,-1.69
COc1ccc(F)c(CN2CCC[C@@]3(CCN(c4ncccn4)C3)C2=O)c1,-14,1.86
O=C(CC1CCN(C(=O)c2ccc3nc(-c4ccccc4)oc3c2)CC1)NCc1cccc(Cl)c1,-5,0.63
O=C(CN1CCCC1)NCCCc1ccccc1,-6,1.09
Cc1cc(C)c2c(C(=O)NCCc3nnc(N)s3)cc(C)nc2c1,5,-0.65
CCCN1C[C@@H](C(=O)NC2CCCC2)CC1=O,-21,1.88
CCNc1ccnc(NC2CC(C)(C)N(C)C(C)(C)C2)n1,8,-1.02
Nc1nccnc1C(=O)Nc1cccc(N2C(=O)CNC2=O)c1,-4,0.47
Cc1ccccc1S(=O)(=O)Nc1cnc(N2CCC(C)CC2)c(C(=O)O)c1,9,-0.85
C=C(C)CN(CC)C(=O)C(=O)Nc1ccc2c(c1)N(C)CC2,-14,1.93
CC(C)c1nnsc1C(=O)NC(c1cccs1)[C@H]1C[C@@H](O)C1 (stereo not given in full),-5,0.63
Cc1cc(C(=O)NC2CCN(C(=O)c3cnc4ccc(F)cc4c3)CC2)c(C)o1,-14,1.47
Cc1ccc2oc(-c3cc4c(cc3Br)OCO4)nc2c1,-23,2
CCC1CN(C(=O)c2nc(C)ncc2Cl)CC1N(C)C (stereo not given),-11,1.5

SMILES,% Inhibition [%],Z score
CCn1cnc2c(N3CC4CN(c5ccccc5)CC4C3)ncnc21 (stereo not given),35,-3.97
NS(=O)(=O)N1CCCN(c2ncnc3cc(Cl)ccc23)CC1,-3,0.33
COc1ccccc1CNC(=O)CC1CCN(C)CC1,-7,1
C[C@]1(C(=O)NCC(=O)N2CCCC2)CC1(Cl)Cl,-8,1.09
Cc1ccc(NC(=O)Cn2nc3c(N4CCN(c5ccccc5)CC4)nccn3c2=O)cc1F,-16,1.56
Cc1ccc(C)c(C(=O)Nc2cnc(-n3nc(C)cc3C)nc2)c1,5,-0.75
CCn1nc(CN2CCC[C@H](NC(=O)c3cc(C)on3)C2)c2c1CCOC2,2,-0.27
COc1ccc(NC(=O)C(C)(C)N(Cc2ccco2)C(=O)CC2C(c3c(C)[nH]c4ccccc34)C2(C)C)cc1 (stereo not given),-36,4.26
CCc1cc(N2CCN(C(=O)c3ccc4[nH]nnc4c3)CC2)ncn1,10,-1.39
CC(C)CC(C)(C)C(=O)N1CCC([C@H]2CCNC2)CC1,5,-0.81
COC(=O)c1cn(-c2nc(C)c3c(n2)CCC3)nn1,-6,0.88
CCC(NC(=O)c1cccc(F)c1O)[C@H]1C[C@H](O)C1 (stereo not given in full),-13,1.28
CN(Cc1ccccc1)[C@@H]1COC2(C1)CN(C(=O)Cc1cccnc1)C2,-12,1.84
CCNC(=O)NC(=O)[C@H](C)Nc1ccc(C)c(OCC(F)F)c1,-11,1.85
CC[C@H]1C(=O)NCCN1CCCS(=O)(=O)C(C)C,-2,0.41
Cc1cccc(Nc2nc(-c3ccco3)c(C#N)c(=O)[nH]2)c1,-47,5.51
CCc1c(-c2nc(C(C)(C)C)no2)cnn1C(CC)CC,-2,0.17
Cc1cccc(N(C)C(=O)c2ncoc2C(C)C)n1,-7,1.04
Cc1cc(=O)cc(C(=O)N2CCC(Oc3cccc(Cl)c3)CC2)n1C,-5,1.02
COCCN1CCN(Cc2cc(-c3ccccc3)[nH]n2)CC1=O,-10,1.29
CC(C)(C)c1nnc(CN2CCCc3ccccc32)o1,15,-1.94
O=C(NCCOc1ccc2c(c1)OCO2)[C@@H]1CCCN1Cc1ccc(F)cc1,2,-0.45

SMILES,% Inhibition [%],Z score
COC[C@H]1CCCN1S(=O)(=O)NCCC(C)(C)OC,-9,1.21
CCN1CCCN(C(=O)c2ccc3c(c2)OCCCO3)CC1,-11,1.38
CS(=O)(=O)c1ccc(C(=O)N2CC3CC3C2)cc1 (stereo not given),-16,2.16
O=C(Nc1cc(S(=O)(=O)N2CCOCC2)ccc1N1CCOCC1)c1ccc2ncsc2c1,-5,0.83
O[C@@H]1Cc2ccccc2[C@@H]1n1cnc(-c2ccccc2)c1-c1ccncc1,8,-1.13
O=C(c1ncoc1C1CC1)N1CC[C@@]2(CCCN(Cc3ccc(F)c(F)c3)C2)C1,4,-0.72
CC(C)c1nnc([C@H]2CN(C(=O)c3cccc(Cl)c3)CC23CCOCC3)o1,-4,0.82
N#CCN1C(=O)[C@@H]2CCCN2c2ccc(S(=O)(=O)N3CCOCC3)cc21,-3,0.44
O=C(Nc1ncc(Cc2ccc(F)cc2)s1)N1CCC2CCC(C1)[S+]2[O-] (stereo not given),13,-1.54
Cc1cc([C@@H](O)CNC(=O)NCc2ccccc2)c(C)o1,-2,0.23
Cn1cc(C(=O)N[C@@H]2COCC[C@@H]2OCc2cscn2)cn1,-14,2.29
COc1ccc([C@H]2C(=O)N(C3CCCCCC3)CC(=O)N2Cc2ccccc2)cc1,-9,1.11
COCCc1noc(C2(c3ccc(F)cc3)CC2)n1,-8,0.79
Cc1ccsc1[C@@H](O)CNC(=O)COc1ccccc1,-15,2.65
Clc1cnc(NCc2cnn3c2CCCC3)nc1,-11,1.35
O=S(=O)(Nc1noc(-c2ccsc2)n1)c1cccs1,-10,1.33
O=C(NCc1cccnc1)[C@@H]1COC2(CCN(C(=O)c3ccc(F)cc3)CC2)N1C(=O)c1ccc(F)cc1,6,-0.97
CCN(CC)CCn1c2ccccc2n2cc(-c3ccc(Br)cc3)nc12,31,-8.72
CC1(C)C[C@@H]1C(=O)NC1CCCCCCC1,0,0
